{"source": "PubChem BioAssay", "note": "This list was built around the results that the source calls inconclusive (neither active nor inactive); the mix of calls is not that of the screen. Calls of active or inactive are those of the source.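 The calls were made as follows: active = viability at or under a set limit in both replicates, limit being median viability minus 3 SD (cut at about 48% in these data, passing the limit was not always enough); inconclusive = at or under the limit in just one replicate; inactive = at or above the limit in both replicates.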", "data": [{"experiment": "H69AR cell proliferation blockers – human, duplicate replicates, primary screen (AID 580);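 also: 100% = mean luminescence of untreated wells and 0% = no signal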", "conditions": "H69AR lung tumor cells viability, ATP luminescence, 72 h; at 10 µM; active compounds read low", "values": [{"compound": "CCCn1c2ccccc2c2nnc(SCC(=O)OCC)nc21", "viability": "inactive: 91.2%"}, {"compound": "CCOC(=O)N1CCC(NC(=O)c2ccc(OC)c(CN3CC(=O)N4CCCC4C3=O)c2)CC1", "note": "(stereo not given)", "viability": "inactive: 96%"}, {"compound": "COc1ccc(Cn2c(C)nc3c(c2=O)c2nc4ccccc4nc2n3Cc2ccco2)cc1", "viability": "inconclusive: 34.6%"}, {"compound": "CCOC(=O)c1c(NC(=O)Cn2c(C)nc3ccccc32)sc2c1CCC2", "viability": "inconclusive: 57.8%"}, {"compound": "C/C(N)=C(/C#N)C(=O)COC(=O)CCSc1ccccc1", "viability": "inactive: 101%"}, {"compound": "CCOC(=O)Cc1nnc2c(Nc3ccccc3F)nc3nonc3n12", "viability": "inconclusive: 12.6%"}, {"compound": "CC1Cc2ccccc2N1CC(=O)NC(=O)NCc1ccco1", "note": "(stereo not given)", "viability": "inconclusive: 39.9%"}, {"compound": "COc1ccc(C(=O)Nc2ccc(Cl)c(Cl)c2)c(OC)n1", "viability": "inconclusive: 40.5%"}, {"compound": "CCN(CC)c1ccc2c(c1)CCCN2", "viability": "inconclusive: 43.4%"}, {"compound": "C=CCSc1nnc2n(CCc3ccccc3)c(=O)c3c4c(sc3n12)COC(C)(C)C4", "viability": "inconclusive: 47%"}, {"compound": "CCOc1ccc2nc(SCc3ccc(C(=O)OC)o3)[nH]c2c1", "viability": "inactive: 109%"}, {"compound": "CCOc1ccc(C2CC(c3ccccc3C)n3nc(N)nc3N2)cc1", "note": "(stereo not given)", "viability": "inactive: 87.9%"}, {"compound": "CCc1nc(C)c(C#N)c2cc(OC)c(OC)cc12", "viability": "inactive: 82.4%"}, {"compound": "CCn1cc(C2=NCC(C)O2)c2ccccc21", "note": "(stereo not given)", "viability": "inactive: 93.5%"}, {"compound": "CCOC(=O)c1cc2sccc2n1CC(=O)Nc1ccc2c(c1)OCCO2", "viability": "inconclusive: 72.6%"}, {"compound": "CC(C)CCn1c(SCC#N)nc2c(sc3ccccc32)c1=O", "viability": "inconclusive: 55.8%"}, {"compound": "COc1ccccc1Nc1nc(N)nc(-c2cc3ccccc3o2)n1", "viability": "inconclusive: 49.3%"}, {"compound": "COC(=O)c1sc(S(=O)(=O)NCc2cccs2)c(C(=O)OC)c1C", "viability": "inactive: 92.3%"}, {"compound": "Cc1sc2ncnc(SCC(=O)N3CCCC3)c2c1C", "viability": "inactive: 93%"}, {"compound": "CCOC(=O)c1sc(Nc2nc3c(OC)cccc3s2)nc1C", "viability": "inconclusive: 59.2%"}, {"compound": "COc1ccc(-c2noc(CCC(=O)NCCCN3CCC(Cc4ccccc4)CC3)n2)cc1", "viability": "inconclusive: 63%"}, {"compound": "O=C(CSc1nc2cc(S(=O)(=O)N3CCOCC3)ccc2o1)NC1CCCc2ccccc21", "note": "(stereo not given)", "viability": "inconclusive: 70.2%"}, {"compound": "O=C(CN1CCN(Cc2ccc3c(c2)OCO3)CC1)N1CCc2[nH]c3ccc(F)cc3c2C1", "viability": "inconclusive: 52.5%"}, {"compound": "CCn1c(=N)n(CC(=O)c2ccco2)c2ccccc21", "viability": "inconclusive: 34.9%"}, {"compound": "CCCCCCn1c(SCC(=O)OC)nc2c1c(=O)[nH]c(=O)n2C", "viability": "inactive: 70.9%"}, {"compound": "CCOc1cc(CN2CCN(C(=O)c3ccco3)CC2)ccc1OC", "viability": "inactive: 89.5%"}, {"compound": "COc1ccc(OCC(=O)N2CCN(C(=O)COc3ccc(Br)cc3)CC2)cc1", "viability": "inconclusive: 47.6%"}, {"compound": "Cc1ccc(C)c(NC(=O)c2ccc3c(c2)N(Cc2ccc(F)cc2)C(=O)CS3=O)c1", "note": "(stereo not given)", "viability": "inactive: 97.1%"}, {"compound": "CCc1ccccc1NC(=O)CSC1=C(C#N)C(c2ccc(O)c(OC)c2)C2=C(CCCC2=O)N1", "note": "(stereo not given)", "viability": "active: 47.9%"}, {"compound": "CCOC(=O)c1c(C)oc2c1c(C(c1ccncc1)N1CCOCC1)c(O)c1ccccc12", "note": "(stereo not given)", "viability": "inconclusive: 1.11%"}, {"compound": "CCOC(=O)C1CCN(CC(=O)Nc2c(C(=O)OC)[nH]c3ccc(Cl)cc23)CC1", "viability": "inconclusive: 58.4%"}, {"compound": "CCn1cc(C(=O)OCC(=O)OC2CC(C)CCC2C(C)C)c(=O)c2ccc(C)nc21", "note": "(stereo not given)", "viability": "inconclusive: 44.7%"}, {"compound": "Clc1ccc(CSc2nnc(Cn3cnc4ccccc43)o2)cc1", "viability": "inactive: 99.2%"}, {"compound": "CNC(=O)c1ccsc1NC(=O)CN1C(=O)CCC1=O", "viability": "inconclusive: 58%"}, {"compound": "O=C(C1CCN(S(=O)(=O)c2cccnc2)CC1)N1CCN(c2ccc(Cl)cc2)CC1", "viability": "inactive: 89.7%"}, {"compound": "Cc1ccc2c(c1)c1c(n2CC(O)Cn2c(C)nc3ccccc32)/C(=N\\O)CCC1", "note": "(stereo not given)", "viability": "inconclusive: 31.5%"}, {"compound": "CCOC(=O)c1sc(NC(=O)CSc2n[nH]c(-c3ccccc3)n2)c(C#N)c1C", "viability": "inconclusive: 41.3%"}, {"compound": "Cc1ccc(C)c(S(=O)(=O)C(C#N)c2nc3ccccc3nc2N2CC(C)OC(C)C2)c1", "note": "(stereo not given)", "viability": "inconclusive: 60.4%"}, {"compound": "O=C(O)C1C2C=CC3(CN(C4CCCC4)C(=O)C13)O2", "note": "(stereo not given)", "viability": "inactive: 83.7%"}, {"compound": "CCOC(=O)c1sc(NC(=O)c2c(C)nn(Cc3ccccc3)c2C)cc1C", "viability": "inconclusive: 38.1%"}]}]}
